PubChem BioAssay AID624417 (National Center for Advancing Translational Sciences (NCATS), 2012)
The whole screen tested about 410,000 compounds, of which about 6,400 (1.6%) were called active. The shares of active, inactive and inconclusive entries below differ from those in the screen. The call rests on the fitted dose curve; in most records, active means well fitted inhibition curve with a large enough effect; inconclusive means small, poorly fitted or top-dose-only effect; inactive means no such curve, though single readings can be large or run the other way. Potencies of inconclusive entries are doubtful fits and often do not repeat.

biological target: Glucagon-like peptide 1 receptor (Homo sapiens) (UniProt P43220); experiment: qHTS of GLP-1 Receptor Inverse Agonists (Inhibition Mode); settings: HEK293 GLP-1R CRE-luciferase, luminescence, 24 h, GLP-1R form is constitutively active; activity change, negative = inhibition: at 38.3 µM (top of the series) unless noted; further: nearly all actives have a fitted effect of over 55% in size
Procedure, shortened: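 Constitutively active GLP-1R drives a cAMP-responsive luciferase in stably transfected HEK293 cells; test compounds are added after overnight (12 h) attachment and left 24 hr, and signal loss in luminescence marks inhibition.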
On the % scale 0 is the no-effect control and ±100 the full control effect; potency means the concentration at half of the fitted maximal effect; tags describe the fitted curve by direction and shape.

UniProt P43220, sequence (P43220 whole entry, looked up): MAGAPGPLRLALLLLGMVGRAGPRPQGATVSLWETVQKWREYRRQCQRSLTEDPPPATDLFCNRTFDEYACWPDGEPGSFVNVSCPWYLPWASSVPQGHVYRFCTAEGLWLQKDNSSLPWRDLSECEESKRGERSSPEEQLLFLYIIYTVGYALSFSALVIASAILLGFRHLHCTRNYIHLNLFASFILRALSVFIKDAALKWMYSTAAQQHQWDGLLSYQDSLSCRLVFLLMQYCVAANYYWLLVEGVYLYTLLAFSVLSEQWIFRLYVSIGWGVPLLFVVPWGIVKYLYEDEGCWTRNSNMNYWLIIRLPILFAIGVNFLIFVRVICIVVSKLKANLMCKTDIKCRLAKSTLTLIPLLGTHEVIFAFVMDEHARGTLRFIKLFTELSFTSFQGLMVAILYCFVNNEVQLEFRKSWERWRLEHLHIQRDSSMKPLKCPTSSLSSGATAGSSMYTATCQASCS

Potency, active:
CC1CC(C)CN(C(=O)C(C)N2CCN(S(=O)(=O)c3ccc(C(F)(F)F)cc3)CC2)C1 (stereo not given) 10 µM

Potency, inconclusive:
CCC(O)c1nc2ccccc2n1Cc1cc(C)ccc1C (stereo not given) 8.91 µM [inhibitor, partial curve, poor fit]
CCCCN1CC(COCc2ccccc2)Oc2cc(Br)ccc2S1(=O)=O (stereo not given) 28.2 µM [inhibitor, single point]
Cc1oc2ccc(O)c(CN3CCCCCC3)c2c1C(=O)Nc1cccc(C(F)(F)F)c1 28.2 µM [inhibitor, single point]
O=C(Nc1nc2ccccc2n1CCN1CCCC1)C1CCCCC1 10 µM [inhibitor, single point]
COc1cc(NC(=O)c2ccccc2F)c(OC)cc1NC(=O)CN1CCCCC1 2 µM [inhibitor, partial curve, poor fit]
Cc1ccccc1-c1cnc(C(O)c2c(C)cccc2C)[nH]1 (stereo not given) 28.2 µM [inhibitor, single point]
COc1ccccc1N(CC(=O)Nc1ccccc1C(F)(F)F)S(=O)(=O)c1ccc(C)cc1 20 µM [inhibitor, single point]
COc1ccc(C(=O)C2CCCN(Cc3cc(Cl)ccc3O)C2)c(OC)c1 (stereo not given) 10 µM [inhibitor, partial curve, poor fit]
C=CCNc1nc(Nc2ccc(OC)c(OC)c2)c2sc(-c3ccccc3)cc2n1 0.794 µM [inhibitor, full curve, poor fit]
CN(C(=O)CSCC(=O)Nc1ccc(Cl)cc1)C1CCCCC1 10 µM [inhibitor, partial curve, poor fit]
COc1cccc2c3cccc(OC)c3c3[nH]cnc3c12 14.1 µM [inhibitor, single point]
COc1ccc(OCc2nnc(SCC(=O)NC3CCCCC3)o2)cc1 28.2 µM [inhibitor, single point]
CC(C)c1ccc(/C=C2\C(=O)N(CCN3CCOCC3)C(=S)N2C)cc1 6.31 µM [inhibitor, partial curve, poor fit]
Cc1ccc(NS(=O)(=O)c2cccc(C(=O)NCC3(N(C)C)CCCCC3)c2)cc1 10 µM [inhibitor, partial curve, poor fit]
COC(=O)c1sccc1S(=O)(=O)N(CC(=O)Nc1cc(F)ccc1F)c1ccc(C)c(C)c1 8.91 µM [inhibitor, partial curve, poor fit]
CCCOc1ccc(C(=O)C(CCC(CNCC)C(=O)c2ccc(OCCC)cc2)CNCC)cc1 (stereo not given) 1.78 µM [inhibitor, full curve, poor fit]
Cc1cccc(NNC(=O)C2CCC2)c1 1.58 µM [inhibitor, full curve, poor fit]
CCS(=O)(=O)Nc1cccc(C2=NN(S(=O)(=O)c3ccc(F)cc3)C(c3cccs3)C2)c1 (stereo not given) 20 µM [inhibitor, single point]
O=C(CSc1ccc(Br)cc1)NCC1(N2CCCCC2)CCCCC1 11.2 µM [inhibitor, single point]
CCN(CC(=O)Nc1ccc(OC)cc1)CC(=O)Nc1sc2c(c1C(=O)OC)CCCC2 28.2 µM [inhibitor, single point]
O=C(NC12CC3CC(CC(C3)C1)C2)OCCNC1CCCCC1 28.2 µM [inhibitor, single point]
Cc1cc(Cl)ccc1OCCSc1nnc(-c2cccs2)o1 28.2 µM [inhibitor, single point]
Cc1nn(-c2ccccc2)c(N)c1N=Nc1ccc(Cl)cc1 8.91 µM [inhibitor, partial curve, poor fit]
CN(C)CCCSc1nc(-c2ccccc2)nc2c1CCC2 8.91 µM [inhibitor, partial curve, poor fit]
Cc1ccc(OCc2cc(C(=O)NCCc3cccnc3)no2)cc1C 10 µM [inhibitor, partial curve]
CCOC(=O)c1nc(N/N=C/c2ccccc2)sc1Br 7.94 µM [inhibitor, single point]
COc1ccc(N/N=C(C)/C(=N/O)C(=O)Nc2ccccc2)cc1 2.51 µM [inhibitor, full curve]
CCOc1cccc(/C=N/Nc2ccc(S(=O)(=O)N(CC)CC)cn2)c1O 1 µM [inhibitor, full curve, poor fit]
COc1cc(NC(=O)c2ccccc2Cl)c2ncccc2c1 11.2 µM [inhibitor, partial curve]
Cc1c(C(C)C)c(=O)n(-c2ccc(S(=O)(=O)NC3CCCCC3)cc2)n1C 7.08 µM [inhibitor, partial curve, poor fit]
CC(C)(C)c1ccccc1OCCCCN1CCCC1 10 µM [inhibitor, single point]
COc1ccccc1C(NC(=O)C1CCN(CCOc2ccccc2)CC1)c1ccccn1 (stereo not given) 11.2 µM [inhibitor, single point]
CC1CCC(C(C)C)C(OCC(O)CN2CCN(Cc3ccccc3)CC2)C1 (stereo not given) 14.1 µM [inhibitor, partial curve, poor fit]
CN1C(=O)/C(=C/c2ccccc2F)Sc2ccc(C(=O)NCC3CCCO3)cc21 (stereo not given) 28.2 µM [inhibitor, single point]
COc1ccc(NC(=O)C(NCC(C)C)c2ccccc2)cc1Cl (stereo not given) 31.6 µM [inhibitor, single point]
COc1ccc(Nc2cc(C(=O)NCc3ccco3)c3ccccc3n2)c(OC)c1 14.1 µM [inhibitor, single point]
O=C(NCCc1csc(-c2ccccc2)n1)c1ccco1 31.6 µM [inhibitor, partial curve, poor fit]
C=CCC[C@@H](Cc1ccc(F)cc1)C(=O)OC[C@@H](NC(=O)[C@H](CC=C)CC(=O)N(CCO)Cc1ccccc1)c1ccccc1 3.98 µM [inhibitor, full curve, poor fit]
COc1ccc(Cl)cc1NC(=O)NC(C)C(C)(C)C (stereo not given) 3.98 µM [inhibitor, full curve, poor fit]
O=S(=O)(Nc1cccc(-c2ccc(N3CCOCC3)nn2)c1)c1ccc(F)c(C(F)(F)F)c1 28.2 µM [inhibitor, single point]
OC(CN1CCN(c2ccccc2Cl)CC1)c1ccccc1 (stereo not given) 12.6 µM [inhibitor, single point]
Cc1ccc(/C=N/NC(=S)Nc2cccc(S(=O)(=O)N(C)C)c2)o1 1.58 µM [inhibitor, full curve, poor fit]
CCOc1ccc(S(=O)(=O)N2CCN(Cc3ccc4c(c3)OCO4)CC2)cc1Cl 3.16 µM [inhibitor, partial curve, poor fit]
Cc1nc2ccccc2n1CC(O)COc1ccccc1Cl (stereo not given) 1.41 µM [inhibitor, full curve, poor fit]
COc1ccc(-c2cc(C(F)(F)F)nc(SCC(=O)N(C)Cc3ccccc3)n2)cc1 11.2 µM [inhibitor, partial curve, poor fit]
N#CC1=C(N)N2C(=C(C#N)C1c1ccc(Br)cc1)Nc1ccccc12 (stereo not given) 3.55 µM [inhibitor, partial curve, poor fit]
CC(C)c1ccc(C2NC(=O)NC3=C2CCc2ccccc23)cc1 (stereo not given) 8.91 µM [inhibitor, partial curve, poor fit]
O=C(NCCc1ccc(Cl)cc1)c1cc2c(s1)-c1ccccc1OC2 28.2 µM [inhibitor, single point]
COc1ccccc1C1(CC(=O)N2CCCCC2)CCOC(C(C)C)C1 (stereo not given) 28.2 µM [inhibitor, single point]
Cc1ccc(-c2nn(-c3ccccc3)cc2C(=O)Nc2cccc(S(=O)(=O)N3CCOCC3)c2)cc1 3.16 µM [inhibitor, full curve, poor fit]

Potency, inactive:
CCc1ccc(-c2[nH]nc3nc(-c4cc(OC)ccc4OC)cc(C(=O)O)c23)cc1
CC1CCN(C(=S)NCCc2ccccc2)CC1
OCCCNC(=S)NC1CCCC1
O=C1C=CC(=O)N1Cc1ccncc1
O=[N+]([O-])c1ccc(Sc2cc[n+]([O-])c3ccccc23)c([N+](=O)[O-])c1
CCCOc1ccc(S(=O)(=O)Nc2ccccn2)c2ccccc12
Cc1ccc(C(C(=O)NC2CCCCC2)N(C(=O)CCCC(=O)Nc2ccccn2)c2ccc3c(c2)OCCO3)cc1 (stereo not given)
CC1(C)COC(c2cc([N+](=O)[O-])ccc2Cl)=N1
COc1ccc(C(CNC(=O)c2ccccc2SC)N(C)C)cc1 (stereo not given)
Cc1occc1-c1nnc(SCC(=O)NC2CCC(C)CC2)o1 (stereo not given)
C=CCSC1=C(C#N)C(c2ccc(OCC)cc2)CC(=O)N1 (stereo not given)
CCOc1ccc(NC(=O)N2CCN(C(=O)c3nsc4ccccc34)CC2)cc1
Cc1cccc(C)c1NC(=O)CN1CCN(C/C=C/c2ccccc2)CC1

Activity change, negative = inhibition, inactive:
O=C(c1ccc(Cl)cc1)C1CCCN(Cc2cccn2-c2cccnc2)C1 (stereo not given) -17.5% [at 7.66 µM]
